From article PMC8809606 come the findings set out here.

Protein sequences, listed by entry. Tags and fused reporters are not part of them. Lines headed by an entry give the natural chain unless they say otherwise; changes in a name come on top.
UniProt P37231: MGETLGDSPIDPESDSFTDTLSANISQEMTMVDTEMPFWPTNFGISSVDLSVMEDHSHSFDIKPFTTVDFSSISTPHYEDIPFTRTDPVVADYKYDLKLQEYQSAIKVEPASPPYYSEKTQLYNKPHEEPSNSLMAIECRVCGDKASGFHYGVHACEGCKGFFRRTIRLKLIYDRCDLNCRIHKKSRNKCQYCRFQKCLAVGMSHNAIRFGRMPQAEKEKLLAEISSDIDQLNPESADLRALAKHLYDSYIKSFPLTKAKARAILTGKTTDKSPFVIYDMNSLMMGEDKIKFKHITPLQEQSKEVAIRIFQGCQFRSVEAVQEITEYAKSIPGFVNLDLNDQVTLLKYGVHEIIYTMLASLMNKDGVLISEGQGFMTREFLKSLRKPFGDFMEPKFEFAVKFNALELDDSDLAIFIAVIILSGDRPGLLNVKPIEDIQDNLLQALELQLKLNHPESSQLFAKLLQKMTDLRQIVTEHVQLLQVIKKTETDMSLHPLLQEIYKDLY

Assay [1] concerns the target T1, Flag-TBC1D1 (wild type), expressed in HEK293T cells (human) (UniProt Q86TI0).
T1 sequence: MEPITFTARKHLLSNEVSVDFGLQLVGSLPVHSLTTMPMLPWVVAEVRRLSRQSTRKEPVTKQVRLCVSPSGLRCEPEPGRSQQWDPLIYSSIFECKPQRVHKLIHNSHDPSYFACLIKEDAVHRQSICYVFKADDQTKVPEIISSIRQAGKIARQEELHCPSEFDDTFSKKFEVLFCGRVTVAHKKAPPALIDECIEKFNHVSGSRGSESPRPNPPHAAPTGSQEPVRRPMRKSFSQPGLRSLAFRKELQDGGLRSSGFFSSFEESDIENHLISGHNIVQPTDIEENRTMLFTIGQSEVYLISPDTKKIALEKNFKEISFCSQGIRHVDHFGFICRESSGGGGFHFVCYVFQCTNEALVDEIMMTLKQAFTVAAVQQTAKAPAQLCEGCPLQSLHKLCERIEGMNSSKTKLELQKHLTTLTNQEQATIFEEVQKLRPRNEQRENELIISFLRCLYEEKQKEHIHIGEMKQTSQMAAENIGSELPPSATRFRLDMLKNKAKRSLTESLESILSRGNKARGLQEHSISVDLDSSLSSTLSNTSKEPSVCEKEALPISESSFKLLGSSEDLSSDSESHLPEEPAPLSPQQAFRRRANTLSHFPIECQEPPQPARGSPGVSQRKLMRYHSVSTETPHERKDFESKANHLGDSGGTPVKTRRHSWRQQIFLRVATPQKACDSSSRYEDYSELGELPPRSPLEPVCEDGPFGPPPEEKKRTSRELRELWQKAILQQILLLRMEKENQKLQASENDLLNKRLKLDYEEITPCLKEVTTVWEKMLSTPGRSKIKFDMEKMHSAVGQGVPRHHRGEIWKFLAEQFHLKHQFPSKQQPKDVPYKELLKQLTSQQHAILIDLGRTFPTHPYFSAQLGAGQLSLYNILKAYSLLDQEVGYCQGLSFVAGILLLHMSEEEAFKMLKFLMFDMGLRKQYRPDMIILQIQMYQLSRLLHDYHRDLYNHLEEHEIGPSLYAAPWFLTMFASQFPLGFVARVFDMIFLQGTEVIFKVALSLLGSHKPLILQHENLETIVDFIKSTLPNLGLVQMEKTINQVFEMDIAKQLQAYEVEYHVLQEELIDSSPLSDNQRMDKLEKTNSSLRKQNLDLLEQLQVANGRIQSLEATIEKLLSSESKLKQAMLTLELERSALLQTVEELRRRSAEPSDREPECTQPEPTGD
Description: co-IP; HEK293T cells transfected with the indicated plasmids for 2 days, lysed, immunoprecipitated with anti-Flag beads, analysed by immunoblotting.

In assay [2] the target is T2, Flag-Rab2A^S20N, expressed in HEK293T cells (UniProt P61019).
T2 sequence: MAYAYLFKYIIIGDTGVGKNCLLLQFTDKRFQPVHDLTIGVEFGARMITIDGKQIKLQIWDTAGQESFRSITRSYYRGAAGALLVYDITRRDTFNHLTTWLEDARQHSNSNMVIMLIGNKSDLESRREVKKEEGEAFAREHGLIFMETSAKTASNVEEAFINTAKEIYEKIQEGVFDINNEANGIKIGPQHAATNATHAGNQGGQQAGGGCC
Described as above.

In assay [3] the target is Flag-Rab2A^Q65L, expressed in HEK293T cells (UniProt P61019). The description is as above.
Assay [4] deals with Flag-Rab2A (wild type), stably expressed in HepG2 cells (UniProt P61019). Kind of assay: pull-down; in vitro binding assay in tubes: GST-PPARγ2 purified from a prokaryotic expression system, Flag-tagged protein pulled down with anti-Flag beads from HepG2 cells, analysed by immunoblotting; both purified. (In general: Immunoblotting shows a protein as a band on a membrane.)
Assay [5] has as its target T3, Flag-TBC1D1^S237A, from HepG2 cells (human) (UniProt Q86TI0).
T3 sequence: T1 sequence with S237A
The description is as above.

In assay [6] the target is T4, Flag-TBC1D1 (wild type), stably expressed in HepG2 cells (human) (UniProt Q86TI0).
T4 sequence: T1 sequence
Described as above.

Assay [7] addresses Flag-Rab2A (wild type), stably expressed in HepG2 cells (UniProt P61019). Kind of assay: co-IP; HepG2 cells stably expressing the Flag-tagged protein, immunoprecipitated with anti-Flag beads, endogenous PPARγ detected by immunoblotting.
Assay [8] concerns the target T4, Flag-TBC1D1 (wild type), stably expressed in HepG2 cells (human). The assay is described as above.

Residue numbers refer to the chain shown, from its start. Results are given in words; binding and its absence hold for the method and conditions named. For some assays here: Binding seen in cells or lysates may run through a third protein. Some entries that bind do so weakly or less than the wild type. For some assays here: Tags and fused reporters may be left off the sequences shown.

As to “PPARγ2-MYC, expressed in HEK293T cells (from UniProt P37231-1 1-505)”, the binding result in assay [1] is recorded as “binds”; in assay [2], “no binding”; in assay [3], “binds”.
“GST-PPARγ2 (from UniProt P37231-1 1-505)”: the binding result in assay [4], in assay [5] and in assay [6] was “binds” in each case.
Take “endogenous PPARγ of HepG2 cells (from UniProt P37231 1-505)”: the binding entry in assay [7] and in assay [8] was “binds” each time.
